# Among all 270,000 compounds or so, about 5,800 (2.1%) were called active. The inconclusive results got no clear call from the source; some entries with a clear call stand among them for comparison. Calls follow the shape of the dose curve; as a rule, active = well fitted inhibition curve with a large enough effect; inconclusive = small, poorly fitted or top-dose-only effect; inactive = flat fitted curve, though single readings scatter. Potencies beside an inconclusive call are fits to weak or partial responses and may not hold up.
# Biological target: Microtubule-associated protein tau (Homo sapiens) (UniProt P10636)
# UniProt P10636, sequence (P10636 whole entry, looked up): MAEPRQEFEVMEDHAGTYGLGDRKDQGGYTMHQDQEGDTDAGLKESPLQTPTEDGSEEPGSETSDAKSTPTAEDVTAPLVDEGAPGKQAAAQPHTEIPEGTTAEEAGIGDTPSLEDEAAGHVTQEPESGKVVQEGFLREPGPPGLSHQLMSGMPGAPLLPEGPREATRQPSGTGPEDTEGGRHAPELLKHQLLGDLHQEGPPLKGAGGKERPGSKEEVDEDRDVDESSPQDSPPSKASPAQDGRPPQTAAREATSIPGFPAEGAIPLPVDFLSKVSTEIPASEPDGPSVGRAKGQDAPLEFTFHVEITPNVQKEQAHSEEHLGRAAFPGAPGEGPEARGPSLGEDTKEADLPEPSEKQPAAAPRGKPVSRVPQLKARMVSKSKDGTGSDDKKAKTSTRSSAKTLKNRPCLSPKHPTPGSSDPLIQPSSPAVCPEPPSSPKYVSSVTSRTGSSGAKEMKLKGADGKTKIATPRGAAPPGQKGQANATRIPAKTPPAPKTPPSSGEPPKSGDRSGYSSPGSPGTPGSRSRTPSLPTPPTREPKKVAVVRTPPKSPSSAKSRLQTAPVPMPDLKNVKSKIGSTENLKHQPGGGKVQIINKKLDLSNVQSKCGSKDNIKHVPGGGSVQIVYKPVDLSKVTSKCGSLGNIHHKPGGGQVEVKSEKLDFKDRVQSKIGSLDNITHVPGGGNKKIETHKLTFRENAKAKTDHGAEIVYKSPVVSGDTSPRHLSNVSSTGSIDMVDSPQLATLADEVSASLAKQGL
# Test: qHTS for Inhibitors of Tau Fibril Formation, Thioflavin T Binding; also: nearly all actives have a fitted effect of over 55% in size
# Conditions: recombinant tau K18 P301L (four-repeat tau fragment), heparin-induced fibrillization, ThT fluorescence; series mostly up to 57.4 µM
# How it was run: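 Heparin-induced (20 uM) aggregation of recombinant human K18 P301L tau, 15 uM unlabeled with 0.24 uM labeled, pH 7 acetate buffer, 6 hr at 37 C with compound. Fibrils quantified by 30 uM ThT fluorescence after 1 hr ambient incubation.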
# % is scaled to controls: 0 for no effect and ±100 for the full control effect; potency is read from the fitted curve at half-maximal effect; tags tell the direction and shape of the fitted curve.
Structure (SMILES),"activity, negative = inhibition",Potency
Cc1ccc(C(C)C)n1C(=O)OC(C)(C)C,inactive: -12.4% [at 11.5 µM],–
FC(F)(F)c1ccc2c(c1)NCC1CCCN21 (stereo not given),–,"inconclusive: 22.4 µM [inhibitor, partial curve]"
COc1ccccc1/C=C1\CCCC2=C1Nc1nnnn1C2c1ccccc1OC (stereo not given),–,"inconclusive: 39.8 µM [inhibitor, single point]"
Cc1ccccc1NC(=O)C1CCN(c2cc(-c3ccccc3)nc3ncnn23)CC1,–,inactive
Cc1c(C(=O)N(Cc2ccccc2F)C2CCS(=O)(=O)C2)oc2ccc(F)cc12 (stereo not given),–,"inconclusive: 20 µM [inhibitor, single point]"
CC(=O)N1N=C(c2ccc3ccccc3c2)OC1(C)C,–,"inconclusive: 14.1 µM [inhibitor, single point]"
O=c1cc(-c2ccccc2)n2c(SCc3ccccc3)nnc2[nH]1,–,"inconclusive: 3.16 µM [inhibitor, full curve]"
CCc1ccc(-n2nc(C)c3c(C)cc(=O)n(CC(=O)N4CCCc5ccccc54)c32)cc1,–,"inconclusive: 35.5 µM [inhibitor, partial curve, poor fit]"
NC1=NC(=O)CC(C(=O)NCc2ccccc2)S1 (stereo not given),–,inactive
O=C(NCc1ccco1)c1ccc(COc2ccccc2Cl)cc1,–,"inconclusive: 11.2 µM [inhibitor, partial curve, poor fit]"
Nc1nc(Nc2ccccc2F)sc1C(=O)c1ccc(Cl)cc1,–,active: 25.1 µM
COc1cc(Cl)c(C)cc1NC(=O)CSc1nnc(-c2ccco2)n1CC(C)C,–,"inconclusive: 17.8 µM [inhibitor, single point]"
Clc1ccc(/C(Cc2nc3ccccc3[nH]2)=N\Nc2ccccc2)cc1,–,"inconclusive: 17.8 µM [inhibitor, partial curve]"
CCOC(=S)SCC(=O)N1CCc2cc(OC)ccc2C1C1C(=O)CCCC1=O (stereo not given),–,"inconclusive: 5.01 µM [inhibitor, full curve, poor fit]"
CC(=O)c1ccc(OCC(O)COc2ccc(C(C)=O)cc2)cc1,–,"inconclusive: 3.55 µM [inhibitor, full curve, poor fit]"
O=C(COc1ccccc1F)NNC(=O)c1ccc(N2CCCCC2)c([N+](=O)[O-])c1,–,"inconclusive: 14.1 µM [inhibitor, partial curve]"
Cc1ccc(-n2cc(C(=O)c3ccccc3O)cn2)cc1,–,"inconclusive: 1.12 µM [inhibitor, full curve]"
Cc1ccccc1N1C(=O)C2ON(c3ccccc3)C(c3ccco3)C2C1=O (stereo not given),–,inactive
CCN(CC)c1nc2c(c(=O)n(C)c(=O)n2C)n1CC(=O)c1ccccc1,–,inactive
CCN=c1scc(-c2ccc3c(c2)NC(=O)CO3)n1N=C1CCCC1,–,"inconclusive: 14.1 µM [inhibitor, partial curve]"
S=C(c1ccc(-c2ccc(Br)cc2)o1)N1CCCCC1,–,"inconclusive: 2.82 µM [inhibitor, full curve, poor fit]"
Nc1cccc(CCc2nc3ccccc3[nH]2)c1,–,"inconclusive: 17.8 µM [inhibitor, partial curve]"
O=C(CCC(=O)NC1CCCCC1)N/N=C/c1ccncc1,–,inactive
CNc1nc(N2CCc3ccccc32)ncc1F,–,"inconclusive: 14.1 µM [inhibitor, partial curve]"

Structure (SMILES),"activity, negative = inhibition",Potency
CCOC(=O)c1cnc2ccc(OC)cc2c1NCCc1ccccc1,–,"inconclusive: 20 µM [inhibitor, single point]"
Cn1c(=O)c2c(nc(NCc3ccccc3)n2Cc2ccccc2)n(C)c1=O,–,inactive
O=C(NCc1ccccc1)c1sc(=S)n2c1[nH]c(=O)c1ccccc12,–,active: 14.1 µM
CCn1cc(C(=O)OCC(=O)NCc2ccccc2Cl)c(=O)c2ccc(C)nc21,–,inactive
Cc1ccc(-n2nnc(-c3cnc4ccccc4c3)n2)cc1,–,"inconclusive: 12.6 µM [inhibitor, single point]"
Cc1ccc(Nc2c([N+](=O)[O-])ccc3c2=NC2(CCCCC2)N=3)cc1,–,active: 15.8 µM
CC(C)COc1ccc(C(=O)Nc2cccc(-c3nc4ccccc4[nH]3)c2)cc1,–,"inconclusive: 11.2 µM [activator, partial curve]"
CCOC(=O)c1cnc(Nc2nc3ccccc3o2)nc1CSC(=S)N(CC)CC,–,"inconclusive: 10 µM [inhibitor, partial curve]"
Cc1ccc(NC(=O)COC(=O)C2CC2C)c(S(=O)(=O)N2CCCCC2)c1 (stereo not given),–,inactive
CCC(=O)c1ccc(N2CCN(C(=O)c3ccccc3F)CC2)c(F)c1,–,"inconclusive: 7.94 µM [inhibitor, full curve]"
CCOc1ccc(NC(=O)Nc2ccccc2C(N)=O)cc1,–,inactive
CCOC(=O)c1ccc(NC(=O)Nc2c[nH]c(=O)[nH]c2=O)cc1,–,"inconclusive: 20 µM [inhibitor, single point]"
CC(C)(C)C1=C(C#N)C(c2ccc3c(c2)OCO3)C(C#N)=C(N)O1 (stereo not given),–,"inconclusive: 31.6 µM [inhibitor, single point]"
Oc1ccc(-c2cnns2)c(O)c1,–,"inconclusive: 44.7 µM [inhibitor, single point]"
Cn1c(/N=C/c2ccc3c(c2)OCO3)nc2ccccc21,–,inactive
CCOC(=O)N1CCC(n2c(SCC(=O)N3CCC(C)CC3)nc3ccccc3c2=O)CC1,–,"inconclusive: 25.1 µM [inhibitor, partial curve]"
Cc1ccc(C)n1Cc1ccc(C(=O)O)cc1,–,"inconclusive: 22.4 µM [inhibitor, partial curve]"
CC(=O)Nc1ccc(S(=O)(=O)NC2(C(F)(F)F)NC(=O)N(CC(C)C)C2=O)cc1 (stereo not given),–,"inconclusive: 35.5 µM [inhibitor, single point]"
COC(=O)c1cc2c(C)c(C)c3ccccn3c-2c1C(=O)OC,–,"inconclusive: 6.31 µM [inhibitor, partial curve]"
O=C(/C=C/c1ccco1)NCC1(c2ccccc2)CCCC1,–,inactive
COc1ccc(CCNC(=O)Nc2ccc([N+](=O)[O-])cc2)cc1OC,–,"inconclusive: 22.4 µM [inhibitor, partial curve, poor fit]"
CC(C)n1c(-c2ccccc2F)n[nH]c1=S,–,inactive
CCCCCn1c(SCc2cccc(C)c2)nc2c1c(=O)[nH]c(=O)n2C,–,"inconclusive: 31.6 µM [inhibitor, single point]"
Cc1ccc(S(=O)(=O)N(CC(=O)N(C)C)c2cccc([N+](=O)[O-])c2)cc1,–,inactive

Structure (SMILES),"activity, negative = inhibition",Potency
CCOC(=O)N1CCc2c(sc(NCc3cccc(F)c3)c2C(=O)Nc2ccccc2OCC)C1,–,"inconclusive: 28.2 µM [inhibitor, single point]"
Cc1ccc(N2CC(NC(=O)Cc3cccs3)CC2=O)cc1C (stereo not given),–,inactive
CCc1cc(-c2n[nH]c(=S)n2-c2cccc(C)c2)cs1,–,inactive
CCOC(=O)N1CCN(C(=O)CS(=O)(=O)c2cn(Cc3ccc(Cl)cc3)c3ccccc23)CC1,–,"inconclusive: 39.8 µM [inhibitor, single point]"
CCCCCCCCCCCCCCC[C@@H](O)[C@H](CO)NC(C)=O,–,inactive
CCOc1ccc(/C=C(\C#N)c2nc3ccccc3c(=O)[nH]2)cc1OC,–,"inconclusive: 1 µM [inhibitor, full curve]"
Cc1ccccc1C(=O)N1CCN(c2ccc([N+](=O)[O-])c(N3CCOCC3)c2)CC1,–,"inconclusive: 25.1 µM [inhibitor, single point]"
Oc1ccc(/C=N/NC(=S)Nc2cccnc2)c(O)c1,–,"inconclusive: 11.2 µM [inhibitor, partial curve]"
CCc1ccc(NC(=O)c2cnc3n(c2=O)CCS3)cc1,–,"inconclusive: 2.82 µM [inhibitor, full curve]"
COc1ccc(/C=N/n2c(N)nc(-c3ccccc3)c2-c2ccccc2)cc1,–,"inconclusive: 25.1 µM [inhibitor, partial curve]"
O=C(NNC(=S)Nc1cccc(C(F)(F)F)c1)c1cccc(Cl)c1,–,"inconclusive: 25.1 µM [inhibitor, single point]"
CC1(C)CC(=O)C(CC2=C(O)CC(C)(C)CC2=O)=C(O)C1,–,active: 15.8 µM
CC(=O)N1CCc2c(sc3c2c(=O)n(-c2ccccc2)c(=O)n3CC(=O)Nc2cccc(C)c2)C1,–,"inconclusive: 35.5 µM [activator, single point]"
COc1ccc(NC(=O)CC2SC(=O)NC2=O)cc1 (stereo not given),–,"inconclusive: 31.6 µM [inhibitor, partial curve]"
COC(=O)C(=C/C(C)=C/c1cccs1)C(=O)OC,–,"inconclusive: 22.4 µM [inhibitor, partial curve]"
COc1ccc(C2(CNC(C)=O)CCCC2)cc1OC,–,inactive
O=C(Nc1cccc(-c2nc3ccccc3o2)c1)c1ccc(-c2ccc(Br)cc2)o1,–,"inconclusive: 0.708 µM [inhibitor, full curve]"
Cc1ccc(S(=O)(=O)N2CCC(=O)N(C(COCc3cccc(C)c3)C(C)C)CC2)cc1 (stereo not given),–,"inconclusive: 31.6 µM [inhibitor, single point]"
COc1ccc(CCCc2nnc(SCC(=O)Nc3ncc(C)s3)o2)cc1,–,"inconclusive: 25.1 µM [inhibitor, single point]"
COc1ccc2nc(NC(=O)c3ccc(-c4cccc([N+](=O)[O-])c4)o3)sc2c1,–,inactive
O=C(CN1CCN(c2ccc(O)cc2)CC1)Nc1cc([N+](=O)[O-])ccc1Cl,–,"inconclusive: 15.8 µM [inhibitor, partial curve]"
Cc1nc(NC(=O)CSc2nc3cccnc3n2Cc2ccccc2)sc1C,–,"inconclusive: 31.6 µM [inhibitor, single point]"
